# Assay results taken from the supplement of paper PMC8728848.
# This is one part of the list.
# Tests used:
# Test in all cases: glycan array binding signal (z-score within array); higher = stronger binding
# Details in all cases: glycan notation: IUPAC condensed, linker removed
# Gal3S4S(b1-4)GlcNAc = target: Gal3S4S(b1-4)GlcNAc
# In short: (§1)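 Glycan array data came from 3228 arrays in the Consortium for Functional Glycomics database, and only arrays with an available protein sequence were kept. Glycan names were put into IUPAC-condensed notation, and columns mapping to the same glycan were averaged. The binding signal is a within-array Z-score, averaged across arrays of one protein sequence run at different concentrations or buffers and across linkers. A negative Z-score can be read as non-binding.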
# Gal3S6S(b1-4)GlcNAc = target: Gal3S6S(b1-4)GlcNAc
# In short: as §1
# Gal3S6S(b1-4)GlcNAc6S = target: Gal3S6S(b1-4)GlcNAc6S
# In short: as §1
# Gal4S(b1-4)GlcNAc = target: Gal4S(b1-4)GlcNAc
# In short: as §1
# Gal4S6S(b1-4)GlcNAc = target: Gal4S6S(b1-4)GlcNAc
# In short: as §1
# Gal6P(b1-4)GlcNAc = target: Gal6P(b1-4)GlcNAc
# In short: as §1
# Gal6S(b1-3)GlcNAc = target: Gal6S(b1-3)GlcNAc
# In short: as §1
# Gal6S(b1-3)GlcNAc6S = target: Gal6S(b1-3)GlcNAc6S
# In short: as §1
# Gal6S(b1-4)Glc = target: Gal6S(b1-4)Glc
# In short: as §1
# Gal6S(b1-4)Glc6S = target: Gal6S(b1-4)Glc6S
# In short: as §1
# Gal6S(b1-4)GlcNAc = target: Gal6S(b1-4)GlcNAc
# In short: as §1
# Gal6S(b1-4)GlcNAc6S = target: Gal6S(b1-4)GlcNAc6S
# In short: as §1
# GalNAc(a1-3)Gal = target: GalNAc(a1-3)Gal
# In short: as §1
# GalNAc(a1-3)GalNAc = target: GalNAc(a1-3)GalNAc
# In short: as §1
# [1] = target: GalNAc(a1-3)GalNAc(b1-3)Gal(a1-4)Gal(b1-4)Glc
# In short: as §1
# [2] = target: GalNAc(a1-3)GalNAc(b1-3)Gal(a1-4)Gal(b1-4)GlcNAc
# In short: as §1
# GalNAc(b1-3)Gal = target: GalNAc(b1-3)Gal
# In short: as §1
# [3] = target: GalNAc(b1-3)Gal(a1-4)Gal(b1-4)GlcNAc
# In short: as §1
# [4] = target: GalNAc(b1-3)Gal(a1-4)Gal(b1-4)GlcNAc(b1-3)Gal(b1-4)Glc
# In short: as §1
# [5] = target: GalNAc(b1-3)Gal(a1-6)Gal(b1-4)Glc
# In short: as §1
# GalNAc(b1-3)GalNAc = target: GalNAc(b1-3)GalNAc
# In short: as §1
# GalNAc(b1-3)GlcNAc = target: GalNAc(b1-3)GlcNAc
# In short: as §1
# GalNAc(b1-4)Gal(b1-4)Glc = target: GalNAc(b1-4)Gal(b1-4)Glc
# In short: as §1
# GalNAc(b1-4)GlcNAc = target: GalNAc(b1-4)GlcNAc
# In short: as §1
# [6] = target: GalNAc(b1-4)GlcNAc(b1-2)Man
# In short: as §1
# [7] = target: GalNAc(b1-4)GlcNAc(b1-2)Man(a1-3)[GalNAc(b1-4)GlcNAc(b1-2)Man(a1-6)]Man(b1-4)GlcNAc(b1-4)GlcNAc
# In short: as §1
# [8] = target: GalNAc(b1-4)GlcNAc(b1-3)GalNAc(b1-4)GlcNAc
# In short: as §1
# GalNAc(b1-4)GlcNAc6S = target: GalNAc(b1-4)GlcNAc6S
# In short: as §1
# GalNAc(b1-6)GalNAc = target: GalNAc(b1-6)GalNAc
# In short: as §1
# GalNAc3S(b1-4)GlcNAc = target: GalNAc3S(b1-4)GlcNAc
# In short: as §1
# GalNAc3S(b1-4)GlcNAc3S = target: GalNAc3S(b1-4)GlcNAc3S
# In short: as §1
# [9] = target: GalNAc3S(b1-4)[Fuc(a1-3)]GlcNAc
# In short: as §1
# GalNAc4S6S(b1-4)GlcNAc = target: GalNAc4S6S(b1-4)GlcNAc
# In short: as §1
# GalNAc6S(b1-4)GlcNAc = target: GalNAc6S(b1-4)GlcNAc
# In short: as §1
# Glc(a1-4)Glc = target: Glc(a1-4)Glc
# In short: as §1
# [10] = target: Glc(a1-4)Glc(a1-4)Glc(a1-4)Glc
# In short: as §1
# Glc(a1-6)Glc(a1-6)Glc = target: Glc(a1-6)Glc(a1-6)Glc
# In short: as §1
# [11] = target: Glc(a1-6)Glc(a1-6)Glc(a1-6)Glc
# In short: as §1
binder,measurement,setting,value
"AFL5 (Aspergillus fumigatus), Q4WB00 (protein) MDNFMEMTKKLGHQPELLRLRALDATYDDALEGKLVVAPLDMSEPGKKILDSGTADGTWLRNVRSKQSVPHDYYGSDVEGELFPKDPDGITYFAHSFKDPWPQQYLGFFDLVHIRGSLAGSAPEGPAPVIQNLTTLLKPGGWVQLMEMNAFSPPPNGPAMTDFAKMASEMFTGIGVGDFANNNKSMLEDAGLKNVQEKRVIVNLGKKAKPELHDQSIHGVTGPIVPLTSVARTVKSSFTGEQLDALPARVKEELETEGGQVEMIIAFGQKA",glycan array binding signal (z-score),Gal3S4S(b1-4)GlcNAc,0.02
same,glycan array binding signal (z-score),Gal3S6S(b1-4)GlcNAc,0.383
same,glycan array binding signal (z-score),Gal3S6S(b1-4)GlcNAc6S,0.29
same,glycan array binding signal (z-score),Gal4S(b1-4)GlcNAc,-0.252
same,glycan array binding signal (z-score),Gal4S6S(b1-4)GlcNAc,-0.177
same,glycan array binding signal (z-score),Gal6P(b1-4)GlcNAc,-0.398
same,glycan array binding signal (z-score),Gal6S(b1-3)GlcNAc,-0.415
same,glycan array binding signal (z-score),Gal6S(b1-3)GlcNAc6S,0.427
same,glycan array binding signal (z-score),Gal6S(b1-4)Glc,-0.426
same,glycan array binding signal (z-score),Gal6S(b1-4)Glc6S,0.286
same,glycan array binding signal (z-score),Gal6S(b1-4)GlcNAc,-0.034
same,glycan array binding signal (z-score),Gal6S(b1-4)GlcNAc6S,-0.051
same,glycan array binding signal (z-score),GalNAc(a1-3)Gal,-0.479
same,glycan array binding signal (z-score),GalNAc(a1-3)GalNAc,-0.257
same,glycan array binding signal (z-score),[1],-0.241
same,glycan array binding signal (z-score),[2],-0.281
same,glycan array binding signal (z-score),GalNAc(b1-3)Gal,-0.162
same,glycan array binding signal (z-score),[3],0.257
same,glycan array binding signal (z-score),[4],0.616
same,glycan array binding signal (z-score),[5],0.524
same,glycan array binding signal (z-score),GalNAc(b1-3)GalNAc,0.114
same,glycan array binding signal (z-score),GalNAc(b1-3)GlcNAc,-0.465
same,glycan array binding signal (z-score),GalNAc(b1-4)Gal(b1-4)Glc,0.189
same,glycan array binding signal (z-score),GalNAc(b1-4)GlcNAc,0.348
same,glycan array binding signal (z-score),[6],-0.187
same,glycan array binding signal (z-score),[7],0.619
same,glycan array binding signal (z-score),[8],-0.282
same,glycan array binding signal (z-score),GalNAc(b1-4)GlcNAc6S,0.026
same,glycan array binding signal (z-score),GalNAc(b1-6)GalNAc,-0.013
same,glycan array binding signal (z-score),GalNAc3S(b1-4)GlcNAc,0.104
same,glycan array binding signal (z-score),GalNAc3S(b1-4)GlcNAc3S,-0.187
same,glycan array binding signal (z-score),[9],-0.018
same,glycan array binding signal (z-score),GalNAc4S6S(b1-4)GlcNAc,0.419
same,glycan array binding signal (z-score),GalNAc6S(b1-4)GlcNAc,-0.039
same,glycan array binding signal (z-score),Glc(a1-4)Glc,-0.249
same,glycan array binding signal (z-score),[10],-0.132
same,glycan array binding signal (z-score),Glc(a1-6)Glc(a1-6)Glc,-0.508
same,glycan array binding signal (z-score),[11],-0.101
